From US20220281949A1 (UNIVERSITY HEALTH NETWORK, published 2022) come the findings set out here.

The target of the test is T1, recombinant 10× His-tagged CD4 protein (extracellular domain of human CD4, GS linker, 10× histidine tag) (human, UniProt P01730 fragment).
T1 construct: Expressed in A375 cells, purified on TALON resin; The text says residues 26-440 of NP_000607.1, whereas the printed construct ends at ...KVLPTW; also called soluble CD4; recombinant CD4
Put plainly: biolayer interferometry (Octet Red): biotinylated DR1 on streptavidin sensors, soluble CD4 as analyte, 400 s association, 300 s dissociation. A general note: Biolayer interferometry detects binding as a change in optical thickness at a sensor tip.

B1: biotinylated recombinant wild-type DR1 protein (DRA1*01:01 and DRB1*01:01 extracellular domains with leucine zippers) (peptide-MHC)
MHC II alpha: not shown
MHC II beta: GDTRPRFLWQLKFECHFFNGTERVRLLERCIYNQEESVRFDSDVGEYRAVTELGRPDAEYWNSQKDLLEQRRAAVDTYCRHNYGVGESFTVQRRVEPKVTVYPSKTQPLQHHNLLVCSVSGFYPGSIEVRWFRNGQEEKAGVVSTGLIQNGDWTFQTLVMLETVPRSGEVYTCQVEHPSVTSPLTVEWRARSESAQSKGGGGSLEIEAAFLERENTALETRVAELRQRVQRLRNRVSQYRTRYGPLGGGKGSGLNDIFEAQKIEWHE
notes: also called biotinylated HLA-DR1; recombinant DR1
Take B1: the binding result is given as “no binding (tested: 26 µM)”.
